From the RNAGym collection of RNA variant scans (doi:10.1093/nar/gkz1192)
Read counts are not given, so values of variants with three or more changes are uncertain.

B1: CPEB3 Ribozyme (parent)
chain: UAACAGGGGGCCACAGCAGAAGCGUUCACGUCGCAGCCCCUGUCAGAUUCUGGUGAAUCUGCGAAUUCUGCUGUAUAUCUC

Variants of: B1
Assay: self-cleavage, relative activity (ratio to wild type); higher = more cleavage; in vitro, sequencing
Procedure, shortened: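 Relative activity compares each variant's cleaved/total read fraction with that of the unmutated ribozyme. To get these fractions, barcoded CPEB3 ribozyme libraries from rounds of error-prone PCR were transcribed with T7 RNA polymerase for 5 hours at 37°C and then given 15 min of DNase I treatment before EDTA was added. The RNAs were reverse transcribed with template switching and sequenced on Illumina, and DNA sequencing linked barcodes to variants. A minimum of 5 reads applied, and three batches were averaged.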
UAACAGGGGGCCACAGCGGAAGCGUUCACGUCGCGGCCCCUGUCUGAUUCUGGUGAAUCUGCGAAUUUUGCUGUAUACCUU showed a self-cleavage of 0.3.
With UAACAGGGGGCCACAGCGGAAGCGUUCACGUCGCUGCCCCUGUCAGAUUCUGGUGAGUCUGCGAAUUCUGCUGAAUAUCUC the self-cleavage was 0.52.
Work on UAACAGGGGGCCACAGCGGAAGCGUUCACGUCGCAGCCCCUGUCAGGUUCUGGUGGAUCUGCGAAUUCUCCUGUAUACCUC yielded a self-cleavage of 0.05.
In the case of UAACAGGGGGCCACAGCGGAAGCGUUCACGUCGCGGCCCCCGUCAGAUUCUGGCGUAUCUGCGAAUUCUGCUGUAUAUCUC, the self-cleavage is reported as 0.35.
In the case of UAACAGGGGGCCACAGCGGAAGCGUUCGCGUCGCAGCCCCUGUCAGAUCAUGGUGAAUCUGCGAAUUCUGCUGUAUAUCUC, the self-cleavage is reported as 0.32.
For UAACAGGGGGCCACAGCGGAAGCGUUCUCGUCGCAGCCCCUGUCGGAUCCUGGUGAAUCUGCGAAUUCUGCUGUAUAUCUC, the self-cleavage was 0.4.
Variant UAACAGGGGGCCACAGCGGAAGCGUUCGCGUCGCAGCCCCCGUCAGAUUCUGGUGAAUCUGCGAACCCUGCUGUAUAUCUC has a self-cleavage of 0.2.
For UAACAGGGGGCCACAGCGGAAGCGUUCACGUCGCGGUCCCUGUCAGAUUCUGGUGAAUCUGCGAAUUCCGCUGUAUAUCUC, the self-cleavage was 1.31.
UAACAGGGGGCCACAGCGGAAGCGUUCACGUCGCGGCCCCUGUUAGAUUCUGGUGAAUCUGCGAAUUCUGCUGUAUAUCUC gave a self-cleavage of 0.24.
Variant UAACAGGGGGCCACAGCGGAAGCGUUCUCGUCGCAGCCCCUGUCAGAUUCUGGUGAAUCUGCGAAUUCUGCCGUAUAUCUC has a self-cleavage of 0.55.
Variant UAACAGGGGGCCACAGCGGAAGCGUUCACGUCGCGGCCCCUGUCAGGUUCUGGUGAAUCUGCGAAUUCUGCUGUAUAUCUC has a self-cleavage of 0.77.
For UAACAGGGGGCCACAGCGGAAGCGUUCGCGUCGCAGCCCCUGUCAGAUUCUGGUGAAUCUGCGAAUUCCGCUGUAUAUCUC, the self-cleavage was 0.93.
Variant UAACAGGGGGCCACAGCGGAAGCGUUCGCGUCGCAGCCCCCGCCAGAUUCUGGUGAAUCUGCGAACUCUGCUGUAUAUCUC has a self-cleavage of 0.17.
Variant UAACAGGGGGCCACAGCGGAAGCGUUCACGUCGCGGCCCCUGUCAGAUACUGGUGAAUCUGCGAAUUCUGCUGUAUAUCUC has a self-cleavage of 0.98.
Variant UAACAGGGGGCCACAGCGGAAGCGUUCACGUCGCUGCCCCUGUCAGAUUCUGGUGAAUCUGCGAAUUCUGCUGUAUCUCUC has a self-cleavage of 0.13.
Work on UAACAGGGGGCCACAGCGGAAGCGUUCUCGUAGCAGCCCCUGUCAGAUUCUGGUGAAUCUGCGAAUUCUGCUGAAUAUCUC yielded a self-cleavage of 0.19.
In the case of UAACAGGGGGCCACAGCGGAAGCGUUCACGUCGCAGCCCCUGUCUGAUUCUGGUGUAUCUGCGAAUUCUGCUGUAUAUCUC, the self-cleavage is reported as 0.14.
Variant UAACAGGGGGCCACAGCGGAAGCGUUCACGUCGCUGCCCCUGUCAGAUUCAGGUGAAUCUGCGUAUUCUGCUGUAAAUCUC has a self-cleavage of 0.13.
UAACAGGGGGCCACAGCGGAAGCGUUCACGUCGCUGCCCCUGCCAGAUUCUGGUGAAUCUGCGAAUUCUGCUGUAUAUCUC gave a self-cleavage of 0.21.
UAACAGGGGGCCACAGCGGAAGCGUUCACGUCGCGGCCCCUGUCAGAUUCUGGCGAAUCUGCGAAUUCUGCUGUGUAUAUC gave a self-cleavage of 1.22.
Variant UAACAGGGGGCCACAGCGGAAGCGUUCACGUCGCGGCCCCUGUCAGAUUCUGGUGAAUCCGCGAAUUCUGCUGUAUAUCUC has a self-cleavage of 0.34.
UAACAGGGGGCCACAGCGGAAGCGUUCACGUCGCGGCCCCUGUCAGAUUCUGGUGAAUCUGCGAAUUCUGCUGUAAAUCUC showed a self-cleavage of 1.18.
UAACAGGGGGCCACAGCGGAAGCGUUCACGUCGCAGCCCCUGUCUGAUUCUGGCGAAUCUGCGAAUUCUGCUGUAUAUCUC gave a self-cleavage of 0.09.
For UAACAGGGGGCCACAGCGGAAGCGUUCACGUCGCUGCCCCUGUCAGAUUCUAGUGAAUCUGCGAAUUCUGCUGUAUAUCUC, the self-cleavage was 0.22.
With UAACAGGGGGCCACAGCGGAAGCGUUCACGUCGCCGCCCCUGUCAGACUCUGGUGAAUCCGCGAGUUCUGCAGUAUAUCUC the self-cleavage was 0.15.
Work on UAACAGGGGGCCACAGCGGAAGCGUUCACGUCGCUGCCCCUGUCAGAUUCUGGUGGAUCUGCGAACUCUGCUGUAGAUCUC yielded a self-cleavage of 0.07.
For UAACAGGGGGCCACAGCGGAAGCGUUCACGUCGCGGCCCCUGUCAGAUCCUGGUGGAUCUGCGAAUUCUGCUGUAUAUCUC, the self-cleavage was 1.07.
UAACAGGGGGCCACAGCGGAAGCGUUCUCGUCGCAGCCCCUGUCAGAUUCUCGUGAAUCUGCUAAUUCUGCUGUAUAUCUC gave a self-cleavage of 0.37.
UAACAGGGGGCCACAGCGGAAGCGUUCACGUCGCUGCCCCUAUCAGAUUCUGGUGAAUCUGCGAAUUCCGCUGUAUAUCUC gave a self-cleavage of 0.11.
UAACAGGGGGCCACAGCGGAAGCGUUCACGUCGCGGCCCCCGUCAGAUUCUGGUGAAUCUGCGAAUUCUGCUGUAUAUCUC showed a self-cleavage of 0.48.
In the case of UAACAGGGGGCCACAGCGGAAGCGUUCGCGUCGCAGCCCCUGUCAGAUUCUGGUGAAUCUGCGAAUUCUGCUGUAUACCUC, the self-cleavage is reported as 0.25.
For UAACAGGGGGCCACAGCGGAAGCGUUCACGUCGCGGCCCCUGUCAGAUUCUGGUGAAUCUGCGAGUUCUGCUGUAUAUCUC, the self-cleavage was 0.78.
In the case of UAACAGGGGGCCACAGCGGAAGCGUUCACGUCGCGGCCCCUGUCAGAUUCUGGUGAAUCUGCGAAUUCUGCUGUAUAUCUU, the self-cleavage is reported as 1.37.
Work on UAACAGGGGGCCACAGCGGAAGCGUUCACGUCGCGGCCCCUGUCAGAUUCUGGUGAAUCUGCGAAUUUUGCUGUAUAUCUC yielded a self-cleavage of 0.23.
